Experimental data taken from PubChem BioAssay (NCI).
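In this assay, cells in 96-well plates receive the compound at five concentrations for 48 hours. Endpoints are linearly interpolated between the surrounding concentrations. GI50 marks 50% less growth. The concentration for full growth arrest is given as TGI.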

System: NCI-H322M lung
Assay: inhibition of tumour cell growth, NCI panel, 48 h

## CC1(C)CC[C@]23CC[C@]4(C)[C@H](CC[C@@H]5[C@@]6(C)CC[C@H](NCO)C(C)(C)[C@@H]6CC[C@]54C)[C@H]2[C@H]1OC3
  GI50: 10.3 µM
  TGI: 22 µM

## CN1CCN(Cc2ccc(NC(=O)c3cncc(C#Cc4cnc5ccc(OCC(F)F)nn45)c3)cc2C(F)(F)F)CC1
  GI50: 0.733 µM
  TGI: 2.13 µM
